# Experimental data: article PMC6602471
# The list shows a part of the results, in another mix than the full data. At the low end of the ranking the order means little.
# Molecular target: RUNX1 (UniProt Q01196)
# Experiment: custom PBM
# Conditions: custom protein-binding microarray; buffer, salt, pH and temperature not stated; high values mean tight binding; double strand, one strand shown
# Sequence of UniProt Q01196 (Q01196 whole entry): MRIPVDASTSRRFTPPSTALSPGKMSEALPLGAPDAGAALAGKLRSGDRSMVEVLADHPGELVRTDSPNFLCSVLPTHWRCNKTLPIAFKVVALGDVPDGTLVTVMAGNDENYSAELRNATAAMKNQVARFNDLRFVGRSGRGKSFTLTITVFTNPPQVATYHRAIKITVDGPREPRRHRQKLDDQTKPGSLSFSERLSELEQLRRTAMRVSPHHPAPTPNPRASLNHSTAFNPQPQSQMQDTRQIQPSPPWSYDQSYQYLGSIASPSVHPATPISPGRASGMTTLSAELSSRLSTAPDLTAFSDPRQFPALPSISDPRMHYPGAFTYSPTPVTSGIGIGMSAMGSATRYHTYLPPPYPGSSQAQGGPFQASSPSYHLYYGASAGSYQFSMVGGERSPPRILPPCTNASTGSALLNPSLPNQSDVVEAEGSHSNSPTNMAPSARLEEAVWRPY
row,Sequence,binding signal (log fluorescence intensity)
1,GCATACGGCTGAAGTCAGCCACATACGCACACATACACATACACACATACACATACGCAC,10.9
2,GCATACGGCTGACGTCAGGCACATACGCACACATACACATACACACATACACATACGCAC,10.8
3,GCGCACATTTCCCGTAAAACATACACGCACACATACACATACACACATACACATACGCAC,10.9
4,GCGCACATTTCCCGTAAATAATACACGCACACATACACATACACACATACACATACGCAC,10.9
5,GCGCACATTTCCCGAAAATCATACACGCACACATACACATACACACATACACATACGCAC,10.9
6,GCATACGGCTGACGCCAGCCACATACGCACACATACACATACACACATACACATACGCAC,10.9
7,CGCGCACTCTGAGGTTGCGCACATACGCACACATACACATACACACATACACATACGCAC,10.9
8,GCGCACATTTCCCGTAAGTCATACACGCACACATACACATACACACATACACATACGCAC,10.9
9,GCATACGGCTGACGTCTGCCACATACGCACACATACACATACACACATACACATACGCAC,10.8
10,GCGCAAATTTCCCGTAAATCATACACGCACACATACACATACACACATACACATACGCAC,10.9
11,GCGCACATTTCCCGTAGATCATACACGCACACATACACATACACACATACACATACGCAC,10.9
12,CGCGCTCTCTGTGGTTGCGCACATACGCACACATACACATACACACATACACATACGCAC,11.4
13,GCATACGGCTGACGTCAGCTACATACGCACACATACACATACACACATACACATACGCAC,10.9
14,CGCGCACTCTGTGATTGCGCACATACGCACACATACACATACACACATACACATACGCAC,10.9
15,GCGCACATTTCGCGTAAATCATACACGCACACATACACATACACACATACACATACGCAC,10.9
16,CGCGCACTCTGTGGTTGAGCACATACGCACACATACACATACACACATACACATACGCAC,11.5
17,GCGCACCTTTCCCGTAAATCATACACGCACACATACACATACACACATACACATACGCAC,10.9
18,GCATACCGCTGACGTCAGCCACATACGCACACATACACATACACACATACACATACGCAC,10.9
19,GCATACGGCTGACGTCCGCCACATACGCACACATACACATACACACATACACATACGCAC,10.9
20,GCGCACATGTCCCGTAAATCATACACGCACACATACACATACACACATACACATACGCAC,10.9
21,CGCGCACTCTGTTGTTGCGCACATACGCACACATACACATACACACATACACATACGCAC,10.9
22,CGCGCACTCTTTGGTTGCGCACATACGCACACATACACATACACACATACACATACGCAC,10.9
